Measured values taken from US20230250147A1 (Sanofi, published 2023).
Values belong to the binder of their own block, whether it stands above or below them.

Molecular target: human glucagon-like peptide-1 (GLP-1) receptor (human, UniProt P43220 24-463)
Assay: cell-based or functional assay

B2: GLP-1RA/FGF21 Fc fusion protein SEQ ID NO: 166 (Fc fusion)
chain: HGEGTFTSDKSKQLAKRLVREFIEWLIKGGHSSGKPPPKGGGGGGGSGGGGSGGGGSA[… human IgG4 Fc with changes …]GGGSGSAHPIPDSSPLLQFGGQVRQRYLYTDDACQTEAHLEIREDGTVGGAADQSPESLLQLKALKPGVIQILGVKTSRFLCQRPDGALYGSLHFDPEACSFRELLLEDGYNVYQSEAHGLPLHLPGCKSPHRDPAPRGPARFLPLPGLPPAPPEPPGILAPQPPDVGSSDPLSMVGSQGRSPSYAS
- HTRF cAMP EC50: 160 pmol/L

B4: GLP-1RA/FGF21 Fc fusion protein SEQ ID NO: 153 (Fc fusion)
chain: HGEGTFTSDKSQLLEKRLAHLFIEWLLAGGHSSIKPPPKGGGGGGGSGGGGSGGGGSA[… human IgG4 Fc with changes …]GGGSGSAHPIPDSSPLLQFGGQVRQRYLYTDDACQTEAHLEIREDGTVGGAADQSPESLLQLKALKPGVIQILGVKTSRFLCQRPDGALYGSLHFDPEACSFRELLLEDGYNVYQSEAHGLPLHLPGCKSPHRDPAPRGPARFLPLPGLPPAPPEPPGILAPQPPDVGSSDPLSMVGSQGRSPSYAS
- HTRF cAMP EC50: 9.98 pmol/L

B5: GLP-1RA/FGF21 Fc fusion protein SEQ ID NO: 155 (Fc fusion)
chain: HGEGTFTSDKSQLLEKRLAHLFIEWLIAGGHSKGRLPPKGGGGGGGSGGGGSGGGGSA[… human IgG4 Fc with changes …]GGGSGSAHPIPDSSPLLQFGGQVRQRYLYTDDACQTEAHLEIREDGTVGGAADQSPESLLQLKALKPGVIQILGVKTSRFLCQRPDGALYGSLHFDPEACSFRELLLEDGYNVYQSEAHGLPLHLPGCKSPHRDPAPRGPARFLPLPGLPPAPPEPPGILAPQPPDVGSSDPLSMVGSQGRSPSYAS
- HTRF cAMP EC50: 11 pmol/L

B6: GLP-1RA/FGF21 Fc fusion protein SEQ ID NO: 172 (Fc fusion)
chain: HGEGTFTSDKSKQLAKRLVRLFIEWLIKGGHSSGKPPPSGGGGGGGSGGGGSGGGGSA[… human IgG4 Fc with changes …]GGGSGSAHPIPDSSPLLQFGGQVRQRYLYTDDACQTEAHLEIREDGTVGGAADQSPESLLQLKALKPGVIQILGVKTSRFLCQRPDGALYGSLHFDPEACSFRELLLEDGYNVYQSEAHGLPLHLPGCKSPHRDPAPRGPARFLPLPGLPPAPPEPPGILAPQPPDVGSSDPLSMVGSQGRSPSYAS
- HTRF cAMP EC50: 254 pmol/L

B8: GLP-1RA/FGF21 Fc fusion protein SEQ ID NO: 183 (Fc fusion)
chain: HGEGTFTSDKSKQLAERLVREFIEWLIAGGHSSGKPPPKGGGGGGGSGGGGSGGGGSA[… human IgG4 Fc with changes …]GGGSGSAHPIPDSSPLLQFGGQVRQRYLYTDDACQTEAHLEIREDGTVGGAADQSPESLLQLKALKPGVIQILGVKTSRFLCQRPDGALYGSLHFDPEACSFRELLLEDGYNVYQSEAHGLPLHLPGCKSPHRDPAPRGPARFLPLPGLPPAPPEPPGILAPQPPDVGSSDPLSMVGSQGRSPSYAS
- HTRF cAMP EC50: 73.8 pmol/L

B12: GLP-1RA/FGF21 Fc fusion protein SEQ ID NO: 150 (Fc fusion)
chain: HGEGTFTSDKSQLLEKELAHLFIEWLIAGGHSKGRPPPKGGGGGGGSGGGGSGGGGSA[… human IgG4 Fc with changes …]GGGSGSAHPIPDSSPLLQFGGQVRQRYLYTDDACQTEAHLEIREDGTVGGAADQSPESLLQLKALKPGVIQILGVKTSRFLCQRPDGALYGSLHFDPEACSFRELLLEDGYNVYQSEAHGLPLHLPGCKSPHRDPAPRGPARFLPLPGLPPAPPEPPGILAPQPPDVGSSDPLSMVGSQGRSPSYAS
- HTRF cAMP EC50: 11.5 pmol/L

B13: GLP-1RA/FGF21 Fc fusion protein SEQ ID NO: 167 (Fc fusion)
chain: HGEGTFTSDKSKQLAKRLVRHFIEWLIKGGHSSGKPPPKGGGGGGGSGGGGSGGGGSA[… human IgG4 Fc with changes …]GGGSGSAHPIPDSSPLLQFGGQVRQRYLYTDDACQTEAHLEIREDGTVGGAADQSPESLLQLKALKPGVIQILGVKTSRFLCQRPDGALYGSLHFDPEACSFRELLLEDGYNVYQSEAHGLPLHLPGCKSPHRDPAPRGPARFLPLPGLPPAPPEPPGILAPQPPDVGSSDPLSMVGSQGRSPSYAS
- HTRF cAMP EC50: 310 pmol/L

B14: GLP-1RA/FGF21 Fc fusion protein SEQ ID NO: 147 (Fc fusion)
chain: HGEGTFTSDKSQLLEKRLAHLFIEWLLKGGHSSGRPPPKGGGGGGGSGGGGSGGGGSA[… human IgG4 Fc with changes …]GGGSGSAHPIPDSSPLLQFGGQVRQRYLYTDDACQTEAHLEIREDGTVGGAADQSPESLLQLKALKPGVIQILGVKTSRFLCQRPDGALYGSLHFDPEACSFRELLLEDGYNVYQSEAHGLPLHLPGCKSPHRDPAPRGPARFLPLPGLPPAPPEPPGILAPQPPDVGSSDPLSMVGSQGRSPSYAS
- HTRF cAMP EC50: 10.1 pmol/L

B15: GLP-1RA/FGF21 Fc fusion protein SEQ ID NO: 144 (Fc fusion)
chain: HGEGTFTSDKSQLLEKRLAHLFIEWLIKGGPSSIKPPPKGGGGGGGSGGGGSGGGGSA[… human IgG4 Fc with changes …]GGGSGSAHPIPDSSPLLQFGGQVRQRYLYTDDACQTEAHLEIREDGTVGGAADQSPESLLQLKALKPGVIQILGVKTSRFLCQRPDGALYGSLHFDPEACSFRELLLEDGYNVYQSEAHGLPLHLPGCKSPHRDPAPRGPARFLPLPGLPPAPPEPPGILAPQPPDVGSSDPLSMVGSQGRSPSYAS
- HTRF cAMP EC50: 16.2 pmol/L

B16: GLP-1RA/FGF21 Fc fusion protein SEQ ID NO: 161 (Fc fusion)
chain: HGEGTFTSDKSKQLAKRLVRLFIEWLIAGGHSSGKPPPKGGGGGGGSGGGGSGGGGSA[… human IgG4 Fc with changes …]GGGSGSAHPIPDSSPLLQFGGQVRQRYLYTDDACQTEAHLEIREDGTVGGAADQSPESLLQLKALKPGVIQILGVKTSRFLCQRPDGALYGSLHFDPEACSFRELLLEDGYNVYQSEAHGLPLHLPGCKSPHRDPAPRGPARFLPLPGLPPAPPEPPGILAPQPPDVGSSDPLSMVGSQGRSPSYAS
- HTRF cAMP EC50: 252 pmol/L

B17: GLP-1RA/FGF21 Fc fusion protein SEQ ID NO: 184 (Fc fusion)
chain: HGEGTFTSDKSKQLAERLVKLFIEWLIAGGHSSGKPPPKGGGGGGGSGGGGSGGGGSA[… human IgG4 Fc with changes …]GGGSGSAHPIPDSSPLLQFGGQVRQRYLYTDDACQTEAHLEIREDGTVGGAADQSPESLLQLKALKPGVIQILGVKTSRFLCQRPDGALYGSLHFDPEACSFRELLLEDGYNVYQSEAHGLPLHLPGCKSPHRDPAPRGPARFLPLPGLPPAPPEPPGILAPQPPDVGSSDPLSMVGSQGRSPSYAS
- HTRF cAMP EC50: 216 pmol/L

Further lines, results first:

- HTRF cAMP EC50: 137 pmol/L
B1: GLP-1RA/FGF21 Fc fusion protein SEQ ID NO: 181 (Fc fusion)
chain: HGEGTFTSDKSKQLAKRLAQEFIEWLIKGGHSSGKPPPKGGGGGGGSGGGGSGGGGSA[… human IgG4 Fc with changes …]GGGSGSAHPIPDSSPLLQFGGQVRQRYLYTDDACQTEAHLEIREDGTVGGAADQSPESLLQLKALKPGVIQILGVKTSRFLCQRPDGALYGSLHFDPEACSFRELLLEDGYNVYQSEAHGLPLHLPGCKSPHRDPAPRGPARFLPLPGLPPAPPEPPGILAPQPPDVGSSDPLSMVGSQGRSPSYAS

- HTRF cAMP EC50: 234 pmol/L
B3: GLP-1RA/FGF21 Fc fusion protein SEQ ID NO: 170 (Fc fusion)
chain: HGEGTFTSDKSKQLAKRLVREFIEWLIEGGHSSGKPPPKGGGGGGGSGGGGSGGGGSA[… human IgG4 Fc with changes …]GGGSGSAHPIPDSSPLLQFGGQVRQRYLYTDDACQTEAHLEIREDGTVGGAADQSPESLLQLKALKPGVIQILGVKTSRFLCQRPDGALYGSLHFDPEACSFRELLLEDGYNVYQSEAHGLPLHLPGCKSPHRDPAPRGPARFLPLPGLPPAPPEPPGILAPQPPDVGSSDPLSMVGSQGRSPSYAS

- HTRF cAMP EC50: 9.22 pmol/L
B7: GLP-1RA/FGF21 Fc fusion protein SEQ ID NO: 156 (Fc fusion)
chain: HGEGTFTSDKSQLLEKRLAHLFIEWLIAGGHSSGRLSPKGGGGGGGSGGGGSGGGGSA[… human IgG4 Fc with changes …]GGGSGSAHPIPDSSPLLQFGGQVRQRYLYTDDACQTEAHLEIREDGTVGGAADQSPESLLQLKALKPGVIQILGVKTSRFLCQRPDGALYGSLHFDPEACSFRELLLEDGYNVYQSEAHGLPLHLPGCKSPHRDPAPRGPARFLPLPGLPPAPPEPPGILAPQPPDVGSSDPLSMVGSQGRSPSYAS

- HTRF cAMP EC50: 8.48 pmol/L
B9: GLP-1RA/FGF21 Fc fusion protein SEQ ID NO: 148 (Fc fusion)
chain: HGEGTFTSDKSQLLEKRLAHLFIEWLIAGGPSSGKYSPKGGGGGGGSGGGGSGGGGSA[… human IgG4 Fc with changes …]GGGSGSAHPIPDSSPLLQFGGQVRQRYLYTDDACQTEAHLEIREDGTVGGAADQSPESLLQLKALKPGVIQILGVKTSRFLCQRPDGALYGSLHFDPEACSFRELLLEDGYNVYQSEAHGLPLHLPGCKSPHRDPAPRGPARFLPLPGLPPAPPEPPGILAPQPPDVGSSDPLSMVGSQGRSPSYAS

- HTRF cAMP EC50: 46.1 pmol/L
B10: GLP-1RA/FGF21 Fc fusion protein SEQ ID NO: 168 (Fc fusion)
chain: HGEGTFTSDLSKQLAKRLVREFIEWLIKGGHSSGKPPPKGGGGGGGSGGGGSGGGGSA[… human IgG4 Fc with changes …]GGGSGSAHPIPDSSPLLQFGGQVRQRYLYTDDACQTEAHLEIREDGTVGGAADQSPESLLQLKALKPGVIQILGVKTSRFLCQRPDGALYGSLHFDPEACSFRELLLEDGYNVYQSEAHGLPLHLPGCKSPHRDPAPRGPARFLPLPGLPPAPPEPPGILAPQPPDVGSSDPLSMVGSQGRSPSYAS

- HTRF cAMP EC50: 9.43 pmol/L
B11: GLP-1RA/FGF21 Fc fusion protein SEQ ID NO: 152 (Fc fusion)
chain: HGEGTFTSDKSQLLEKRLAHLFIEWLLAGGHSSIRPPPKGGGGGGGSGGGGSGGGGSA[… human IgG4 Fc with changes …]GGGSGSAHPIPDSSPLLQFGGQVRQRYLYTDDACQTEAHLEIREDGTVGGAADQSPESLLQLKALKPGVIQILGVKTSRFLCQRPDGALYGSLHFDPEACSFRELLLEDGYNVYQSEAHGLPLHLPGCKSPHRDPAPRGPARFLPLPGLPPAPPEPPGILAPQPPDVGSSDPLSMVGSQGRSPSYAS

- HTRF cAMP EC50: 173 pmol/L
B18: GLP-1RA/FGF21 Fc fusion protein SEQ ID NO: 165 (Fc fusion)
chain: HGEGTFTSDLSKQLAKRLVRLFIEWLIKGGHSSGKPPPKGGGGGGGSGGGGSGGGGSA[… human IgG4 Fc with changes …]GGGSGSAHPIPDSSPLLQFGGQVRQRYLYTDDACQTEAHLEIREDGTVGGAADQSPESLLQLKALKPGVIQILGVKTSRFLCQRPDGALYGSLHFDPEACSFRELLLEDGYNVYQSEAHGLPLHLPGCKSPHRDPAPRGPARFLPLPGLPPAPPEPPGILAPQPPDVGSSDPLSMVGSQGRSPSYAS

- HTRF cAMP EC50: 124 pmol/L
B19: GLP-1RA/FGF21 Fc fusion protein SEQ ID NO: 186 (Fc fusion)
chain: HGEGTFTSDKSKQLAERLAKLFIEWLIAGGHSSGKPPPKGGGGGGGSGGGGSGGGGSA[… human IgG4 Fc with changes …]GGGSGSAHPIPDSSPLLQFGGQVRQRYLYTDDACQTEAHLEIREDGTVGGAADQSPESLLQLKALKPGVIQILGVKTSRFLCQRPDGALYGSLHFDPEACSFRELLLEDGYNVYQSEAHGLPLHLPGCKSPHRDPAPRGPARFLPLPGLPPAPPEPPGILAPQPPDVGSSDPLSMVGSQGRSPSYAS
